According to PubChem BioAssay AID686978 (National Center for Advancing Translational Sciences (NCATS), 2013):
Several values for one entry are separate records, joined by “and”; a condition that tells them apart may be missing. Identical values can stand only once. About 64,000 (15%) of roughly 420,000 compounds were called active. This list was built around the results that the source calls inconclusive (neither active nor inactive); the mix of calls is not that of the screen. The call rests on the fitted dose curve; in most records, active means well fitted inhibition curve with a large enough effect; inconclusive means small, poorly fitted or top-dose-only effect; inactive means flat fitted curve, though single readings scatter. Potencies beside an inconclusive call are fits to weak or partial responses and may not hold up.

Assay: qHTS for Inhibitors of human tyrosyl-DNA phosphodiesterase 1 (TDP1): qHTS in cells in absence of CPT; further: nearly all actives have a fitted effect of over 55% in size
Settings: DT40 Tdp1-/- hTDP1 cells, no CPT, ATP luminescence, 48 h; activity change, negative = growth inhibition: at 46.2 µM (top of the series) unless noted
Summary of the method: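 No-CPT arm: Tdp1-/-;hTDP1 DT40 cells (400/well) plus compounds, incubated ≥48 hr at 37 °C. Readout CellTiter-Glo luminescence.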
On the % scale 0 is the no-effect control and ±100 the full control effect; potency means the concentration at half of the fitted maximal effect; tags describe the fitted curve by direction and shape.

| SMILES | activity change, negative = growth inhibition | Potency |
| --- | --- | --- |
| COc1ccnc(Oc2ccccc2)c1-c1ncn[nH]1 | inactive: 7.94% |  |
| CCOC(=O)c1ccccc1NC(=O)COC(=O)c1cc([N+](=O)[O-])ccc1N1CCOCC1 |  | active: 6.51 µM |
| CCc1[nH]nc2c1C(C(C)C)C(C#N)=C(N)O2 (stereo not given) |  | inconclusive: 20.6 µM [inhibitor, partial curve] |
| CCOc1ccc(S(=O)(=O)N2CCN(C(=O)C3CCC3)CC2)cc1 |  | inconclusive: 29.1 µM [inhibitor, single point] |
| CC(C)(C)c1cc(NC(=O)c2ccco2)no1 | inactive: 5.19% |  |
| CCOc1ccc(Br)cc1S(=O)(=O)Nc1ccc(C(=O)Nc2ccccc2OC)cc1 | inactive: -24.8% |  |
| COc1ccc(-c2nc3ccccc3n2CCC(C)C)cc1OC |  | active: 25.9 µM |
| Brc1ccc(CSc2nnc(-c3ccccn3)n2Cc2ccco2)cc1 |  | active: 8.2 µM |
| CC(C)(C)NC(=O)N1CCN(c2ncccc2C(F)(F)F)CC1 | inactive: -17.6% |  |
| CCCCc1nc(SCCOC)c2c(=O)n(C)c(=O)n(C)c2n1 |  | inconclusive: 29.1 µM [inhibitor, single point] |
| O=S(=O)(c1ccccc1)c1nc(-c2cccs2)oc1NCC1CCCO1 (stereo not given) | inconclusive: -31.9% [inhibitor] |  |
| CCCc1cc(N2CCN(c3ccccc3)CC2)n2cnnc2n1 | inactive: -77.5% |  |
| CCOc1ccc2c(c1)C(N(CCN1CCOCC1)C(=O)Nc1ccc(OC)cc1OC)CC(C)(C)O2 (stereo not given) |  | inconclusive: 16.4 µM [inhibitor, single point] |
| CCc1ccc(CN(Cc2ccco2)c2cnc(S(C)(=O)=O)nc2C(=O)Nc2c(C)cccc2C)cc1 |  | active: 18.4 µM |
| O=S(=O)(c1ccc2c(c1)CCN2)N1CCOCC1 | inactive: 5.39% |  |
| O=C(Nc1ccc(C2=CN(Cc3ccccc3)CCC2=O)cc1)OCc1ccccc1 | inactive: -10.3% |  |
| CCc1cccc(CC)c1NC(=O)Cn1c(=O)c(-c2cc(C)ccc2NC(C)=O)nc2ccccc21 | inactive: 1.16% |  |
| O=C(Nc1cccc(-c2nc3ncccc3o2)c1)c1sc2ccccc2c1Cl |  | inconclusive: 17.8 µM [inhibitor, partial curve, poor fit] |
| CCOc1ccc(C)cc1S(=O)(=O)n1ccc(C)n1 |  | inconclusive: 20.6 µM [inhibitor, single point] |
| CCCCNc1c(-c2ccc(-c3cccc(Cl)c3)cc2)nc2ccc(Cl)cn12 |  | inconclusive: 16.4 µM [inhibitor, partial curve] |
| Cc1cc(-n2c(C)cc(C(=O)COc3ccc4ccc(=O)oc4c3)c2C)no1 |  | inconclusive: 29.1 µM [inhibitor, single point] |
| CNC(=S)NN=C(C)c1ccc(OC)cc1O |  | active: 0.0116 µM |
| COc1cc(/C=C/C(=O)OCC(=O)NC(=O)NC(C)C)cc(S(=O)(=O)N2CCc3ccccc32)c1OC |  | active: 20.6 µM |
| CCOC(=O)N1CCN(C(=O)c2cc3c(s2)-c2ccccc2OC3)CC1 |  | inconclusive: 23.1 µM [inhibitor, single point] |
| c1ccc(-n2cccc2)c(N2CCCCC2)c1 |  | inconclusive: 29.1 µM [inhibitor, single point] |

| SMILES | activity change, negative = growth inhibition | Potency |
| --- | --- | --- |
| CC(N)c1csc(Nc2ccc(C(=O)c3ccccc3)cc2)n1 (stereo not given) |  | inconclusive: 29.1 µM [inhibitor, single point] |
| Cn1c(CSc2nc3ccccc3s2)nnc1SCC(=O)NCCCN1CCOCC1 | inactive: 0.648% |  |
| O=C(NCC1CCCO1)c1cc2ccccc2[nH]1 (stereo not given) |  | inconclusive: 32.6 µM [inhibitor, single point] |
| COc1cccc(-n2c(SCC(=O)NCc3cccs3)nc3ccccc3c2=O)c1 |  | inconclusive: 29.1 µM [inhibitor, partial curve] |
| CCc1ccccc1NCc1nnc2n1CCCCC2 | inactive: -9.33% |  |
| Cc1ccc(C(=O)NC2CCCc3ccccc32)cc1[N+](=O)[O-] (stereo not given) |  | active: 14.6 µM |
| CCOc1ccccc1/C=C/c1onc(C)c1S(=O)(=O)N1CCC(C(=O)NC)CC1 |  | inconclusive: 16.4 µM [inhibitor, single point] |
| CN(C)CCNc1nc(-c2ccccc2F)c2sccc2n1 | inactive: -29.1% |  |
| Cn1c(=NC(=O)c2ccc(S(=O)(=O)N3CCCC3)cc2)sc2cc(F)ccc21 | inactive: -17% |  |
| O=c1[nH]c2ccccc2n1Cc1ccc(Cl)cc1 |  | inconclusive: 6.51 µM [inhibitor, full curve] |
| CC(C)(C)SCCNC(=O)/C=C/c1cccc([N+](=O)[O-])c1 | inconclusive: -28.5% [inhibitor] |  |
| COc1ccc(NC(=O)CN2C(=O)NC(c3ccccc3)(c3ccccc3)C2=O)cc1OC | inactive: -28.8% |  |
| Cc1ccccc1-n1c(SCC(=O)N/N=C/c2ccccc2OCC(=O)O)nc2ccccc2c1=O |  | inconclusive: 29.1 µM [inhibitor, single point] |
| COc1ccccc1CNC(=S)NCc1ccc(Cl)cc1 |  | inconclusive: 23.1 µM [inhibitor, single point] |
| Cc1ccc(CNC(=O)Cn2c(=O)c3sccc3n(Cc3ccc([N+](=O)[O-])cc3)c2=O)cc1 |  | inconclusive: 16.4 µM [inhibitor, partial curve] |
| O=c1c2ccccc2nc(SCc2cccc(F)c2)n1Cc1ccco1 | inactive: -19.1% |  |
| Cc1ccc(Cc2c(C)nc3nc(SCC(=O)NCCCN4CCCCCC4)nn3c2C)cc1 |  | inconclusive: 29.1 µM [inhibitor, single point] |
| Cc1ccc2nc(CSc3nc(C)cc(C)c3C#N)[nH]c2c1 |  | inconclusive: 29.1 µM [inhibitor, single point] |
| CCn1cc(CN2CCC(n3nccc3NC(=O)CCc3ccccc3)CC2)cn1 | inactive: -2.86% |  |
| Cc1cccc(N2CCN(S(=O)(=O)c3ccc4c(c3)C(C(C)C)C(=O)N4)CC2)c1C (stereo not given) |  | active: 11.6 µM |
| Cc1ccc(-c2nnc(SCC(=O)c3ccc(Cl)cc3)n2-c2ccccc2)cc1 |  | active: 8.2 µM |
| CCOC(=O)c1ncn2c1[C@@H]1CCNC1C(=O)c1cc(OC)ccc1-2 (stereo not given in full) |  | inconclusive: 14.6 µM [inhibitor, single point] |
| COc1ccc(-c2noc(CCCC(=O)Nc3ccc(C(N)=O)cc3)n2)cc1 | inactive: -24.6% |  |
| Cc1cc(/C=N/n2cnnc2)c(C)n1-c1ccc(Cl)cc1 | inactive: -11.7% |  |
| COc1ccc(OCC(=O)N2CCN(S(=O)(=O)c3ccc4c(c3)OCCO4)CC2)cc1 |  | inconclusive: 29.1 µM [inhibitor, single point] |

| SMILES | activity change, negative = growth inhibition | Potency |
| --- | --- | --- |
| CCC(=O)NC1=C(C#N)C2(CCCC2)Cc2ccccc21 | inactive: -16% |  |
| Cc1oc(-c2ccccc2F)nc1CSCC(=O)N1CCN(c2ccccc2)CC1 |  | active: 9.2 µM |
| CCN(CC)S(=O)(=O)c1ccc(OC)c(NC(=O)C2CC(=O)N(c3ccc(C)cc3)C2)c1 (stereo not given) | inactive: -14.4% |  |
| NC(=S)Nc1cccc(Cl)c1 |  | inconclusive: 32.6 µM [inhibitor, partial curve, poor fit] |
| CCOC(=O)C1=C[C@@H](C(C)(C)C)N(S(=O)(=O)c2ccc(C)cc2)[C@H]1c1cccc2ccccc12 |  | inconclusive: 29.1 µM [inhibitor, single point] |
| CCOC(=O)C(Cc1c[nH]c2ccc([N+](=O)[O-])cc12)(NC(C)=O)C(=O)OCC |  | inconclusive: 13 µM [inhibitor, partial curve] |
| COc1cccc(C(=O)C(CCC#N)c2ccccc2)c1 (stereo not given) |  | inconclusive: 29.1 µM [inhibitor, single point] |
| CCOc1ccc(CNC(=O)c2ccc3c(c2)N(CC)CCS3)cc1 |  | inconclusive: 29.1 µM [inhibitor, single point] and inconclusive: 18.4 µM [inhibitor, single point] |
| C=CCNC(=O)C1CC2Cn3c(nc4cc(Cl)c(Cl)cc43)C2N1C (stereo not given) | inactive: -17.7% |  |
| COc1ccc(CNc2nc3ccccc3n2Cc2ccc(C)cc2)cc1OC |  | inconclusive: 20.6 µM [inhibitor, partial curve] |
| CSc1ccccc1NC(=O)COC(=O)CSc1ccc(C)cc1 | inactive: -2.04% |  |
| CCOC(=O)C1CCCN(C(=O)c2ccc(F)c(C)c2)CC1 (stereo not given) | inactive: -17.9% |  |
| CC(=O)n1nc(-c2ccco2)nc1SCc1ccccc1 | inactive: -24.4% |  |
| CCN1C(=O)[C@H]2[C@@H](c3ccc(-c4ccc(OC)cc4)cc3)N3CCCC[C@@]3(C(=O)OC)[C@H]2C1=O |  | active: 16.4 µM |
| Cc1noc(C)c1S(=O)(=O)Nc1ccc2c(c1)C(=O)N([C@H](C)CO)C[C@H](C)[C@@H](CN(C)C(=O)Nc1ccc(C(F)(F)F)cc1)O2 | inactive: -11.6% |  |
| Cc1ccc(SC(=O)COc2ccccc2C)cc1 |  | inconclusive: 25.9 µM [inhibitor, single point] |
| CN(c1ccccc1)C(c1ccc(F)cc1)c1nnnn1C1CCCC1 (stereo not given) |  | inconclusive: 29.1 µM [inhibitor, single point] |
| CC(Sc1nnc(C2CC2)n1C1CC1)C(=O)N(C)C1(C#N)CCCCC1 (stereo not given) | inactive: 1.34% |  |
| COc1ccc(/C=N/Nc2ncccc2[N+](=O)[O-])c(OC)c1 |  | inconclusive: 29.1 µM [inhibitor, single point] |
| COc1cccc(CNc2ccc3[nH]c(=O)[nH]c3c2)c1OCc1ccccc1Cl |  | inconclusive: 23.1 µM [inhibitor, single point] |
| CC12CCC(c3c(C(=O)N4CCOCC4)nn(-c4ccccc4)c31)C2(C)C (stereo not given) |  | inconclusive: 20.6 µM [inhibitor, single point] |
| COc1ccc(N2CCN(C(=O)CSc3c4c(nc5ccc(Cl)cc35)CCCC4)CC2)cc1 |  | active: 14.6 µM |
| CCn1c2c(c3cc(OCC(C)C)ccc31)CCCC2=O |  | active: 20.6 µM |
| CC(C)n1cnc2c(NCc3ccccc3)cc(Cc3ccc(F)cc3)cc21 |  | inconclusive: 29.1 µM [inhibitor, single point] |
| CCOC(=O)c1ccc(NC(=O)CN2C(=O)C3C4C=CC(C4)C3C2=O)cc1 (stereo not given) |  | inconclusive: 7.31 µM [inhibitor, partial curve, poor fit] |
